Test results as given in PubChem BioAssay AID504339 (National Center for Advancing Translational Sciences (NCATS), 2011).
The campaign covered roughly 390,000 compounds. About 17,000 (4.4%) were called active. This list was built around the results that the source calls inconclusive (neither active nor inactive); the mix of calls is not that of the screen. Calls come from the whole dose curve; as a rule, active = well fitted inhibition curve with a large enough effect; inconclusive = small, poorly fitted or top-dose-only effect; inactive = no such curve, though single readings can be large or run the other way. A potency beside an inconclusive call is a rough fit, not a confirmed value.

molecular target: Lysine-specific demethylase 4A (Homo sapiens) (UniProt O75164); assay: qHTS Assay for Inhibitors of JMJD2A-Tudor Domain; settings: AlphaScreen JMJD2A-Tudor / H3K4me3 peptide binding; activity change, negative = inhibition: at 114 µM (top of the series); note: nearly all actives have a fitted effect of over 50% in size
% is set by controls: 0 for no effect and ±100 for the full control effect; potency is the fitted concentration of half-maximal effect; tags give direction and shape of the fitted curve.

UniProt O75164, sequence (O75164 whole entry, looked up, the tested form may be a part): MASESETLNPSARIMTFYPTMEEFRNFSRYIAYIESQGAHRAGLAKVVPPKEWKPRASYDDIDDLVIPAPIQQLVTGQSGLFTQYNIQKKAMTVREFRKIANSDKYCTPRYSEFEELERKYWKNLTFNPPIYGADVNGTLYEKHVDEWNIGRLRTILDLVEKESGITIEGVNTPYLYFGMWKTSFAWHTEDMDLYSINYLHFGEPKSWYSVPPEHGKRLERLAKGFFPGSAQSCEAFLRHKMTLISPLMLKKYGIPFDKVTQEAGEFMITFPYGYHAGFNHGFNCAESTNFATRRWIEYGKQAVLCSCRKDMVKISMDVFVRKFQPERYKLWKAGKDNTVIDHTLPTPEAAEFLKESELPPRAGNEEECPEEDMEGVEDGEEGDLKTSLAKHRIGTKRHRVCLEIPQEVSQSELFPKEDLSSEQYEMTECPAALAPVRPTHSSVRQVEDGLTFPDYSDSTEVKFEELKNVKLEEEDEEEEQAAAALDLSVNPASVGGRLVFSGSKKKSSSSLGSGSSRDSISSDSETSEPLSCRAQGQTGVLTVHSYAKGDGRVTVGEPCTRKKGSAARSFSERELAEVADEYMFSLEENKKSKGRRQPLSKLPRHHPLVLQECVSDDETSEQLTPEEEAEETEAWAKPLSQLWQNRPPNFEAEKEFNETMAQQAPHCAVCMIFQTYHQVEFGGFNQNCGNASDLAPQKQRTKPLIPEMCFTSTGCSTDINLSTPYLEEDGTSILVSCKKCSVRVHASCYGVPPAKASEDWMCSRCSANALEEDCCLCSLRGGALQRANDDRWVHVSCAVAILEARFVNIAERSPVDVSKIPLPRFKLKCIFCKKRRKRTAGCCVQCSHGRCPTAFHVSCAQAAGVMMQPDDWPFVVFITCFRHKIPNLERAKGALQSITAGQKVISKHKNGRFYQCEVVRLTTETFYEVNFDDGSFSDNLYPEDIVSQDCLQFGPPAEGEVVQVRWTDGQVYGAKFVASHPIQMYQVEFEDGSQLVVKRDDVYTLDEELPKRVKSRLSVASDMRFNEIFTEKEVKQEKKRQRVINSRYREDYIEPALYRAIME

Compound	Potency	activity change, negative = inhibition
CCN(CC)c1ccc(/C=C/c2ccc3ccc(OC)cc3[n+]2CC)cc1	active: 12.6 µM	–
CCOc1ccc2nc(NCCNC(=O)C(C)(C)C)c(C)cc2c1	inconclusive: 25.1 µM [inhibitor, full curve, poor fit]	–
CCOc1ccccc1NC(=O)c1ccc2c(c1)CCN2S(C)(=O)=O	–	inactive: -14.2%
CCS(=O)(=O)N1CCc2cc(C(=O)Nc3cc([N+](=O)[O-])ccc3C)ccc21	inconclusive: 56.2 µM [inhibitor, partial curve]	–
COC(=O)c1ccc(C)c(NC(=O)c2ccc(Cn3cc([N+](=O)[O-])cn3)o2)c1	–	inactive: -18.1%
COc1ccc(NC(=O)CSc2oc(-c3ccco3)nc2S(=O)(=O)c2ccc(C)cc2)c(OC)c1	–	inactive: -19.8%
N#C/C(=N\Nc1ccc(S(=O)(=O)N2CCCCC2)cc1)C(N)=S	inconclusive: 31.6 µM [inhibitor, full curve, poor fit]	–
Cc1ccc(-n2nc3c(N4CCC(C(=O)NCc5ccccc5C)CC4)nnc(C)c3c2C)cc1	inconclusive: 100 µM [inhibitor, single point]	–
Cc1nn2c(C)nc3sc4c(c3c2nc1=O)CC(C)(C)OC4	inconclusive: 56.2 µM [inhibitor, partial curve]	–
O=[N+]([O-])c1ccc(N2CCCC2)cc1NCc1ccccc1	inconclusive: 15.8 µM [inhibitor, full curve, poor fit]	–
COC(=O)c1[nH]c(C)c(/C(O)=C2\C(=O)C(=O)N(CCN3CCOCC3)C2c2cccnc2)c1C (configuration not stated)	active: 22.4 µM	–
COC(=O)c1c(-c2cccc(C)c2)csc1N	inconclusive: 79.4 µM [inhibitor, single point]	–
COc1ccc(OC)c(Nc2nc(=O)c3cccnc3s2)c1	active: 17.8 µM	–
CCOC(=O)C(Sc1ncc(C#N)c(N)n1)C(C)C (configuration not stated)	active: 44.7 µM	–
O=C(Nc1cc(S(=O)(=O)N2CCOCC2)ccc1N1CCCCC1)c1cc(-c2ccccn2)nc2ccccc12	active: 79.4 µM	–
COc1ccc2oc(=O)c(/C(N)=N/NC(=O)c3ccncc3)cc2c1	inconclusive: 28.2 µM [inhibitor, full curve, poor fit]	–
O=[N+]([O-])c1ccc(Oc2ccc(F)cc2)c2ccncc12	inconclusive: 44.7 µM [inhibitor, partial curve]	–
CC(C)CCOC(=O)C[N+](C)(C)CCOC1CC2CCC1(C)C2(C)C (configuration not stated)	–	inactive: -19.8%
O=C(Cc1ccc(Cl)cc1)NCC(c1cccs1)S(=O)(=O)c1ccccc1 (configuration not stated)	–	inactive: -13.9%

Compound	Potency	activity change, negative = inhibition
CCCSc1ncc(Cl)c(C(=O)Nc2sc(C(C)=O)c(C)c2C(=O)OCC)n1	–	inactive: -9.38%
COc1ccc(-c2cn3c(n2)sc2cc(C(=O)NC(C)C45CC6CC(CC(C6)C4)C5)ccc23)cc1 (configuration not stated)	–	inactive: 1.32%
Cc1ccc(C(=O)/C=C\NCc2ccccc2)cc1	–	inactive: -19.4%
COC(=O)CCCn1c(-c2ccc(C)cc2)c(C)n2c3c(=O)n(C)c(=O)n(C)c3nc12	inconclusive: 31.6 µM [inhibitor, partial curve]	–
O=C(NCc1cccs1)C1CCCN(S(=O)(=O)c2cccc3cccnc23)C1 (configuration not stated)	inconclusive: 10 µM [inhibitor, partial curve, poor fit]	–
CCCOc1ccc(/C(O)=C2\C(=O)C(=O)N(c3ccccn3)C2c2ccccc2F)cc1C (configuration not stated)	inconclusive: 79.4 µM [inhibitor, partial curve]	–
COc1ccc(CCNC2CC(=O)N(CCc3ccccc3)C2=O)cc1OC (configuration not stated)	–	inactive: 5.13%
c1ccc(-c2nc3c(ccc4ccccc43)[nH]2)nc1	inconclusive: 89.1 µM [inhibitor, single point]	–
CCC(=O)Nc1cccc(C2=NOC3(C2)C[C@@H](C(N)=O)N(C(=O)c2cc([N+](=O)[O-])cc([N+](=O)[O-])c2C)C3)c1 (some centres not stated)	inconclusive: 89.1 µM [inhibitor, single point]	–
CC(=O)NC(CCS(C)(=O)=O)C(=O)Nc1cccc(C(C)=O)c1 (configuration not stated)	–	inactive: 3.85%
C/C(=N\NC(=O)c1cccc(N/N=C(\C)c2ccco2)c1)c1ccco1	inconclusive: 79.4 µM [inhibitor, partial curve]	–
Cn1cccc1C1CCCN1CC(=O)Nc1ccc(F)c(F)c1F (configuration not stated)	inconclusive: 44.7 µM [inhibitor, partial curve, poor fit]	–
CC(Cc1cccs1)N(Cc1ccc(Cl)cc1)C(=O)c1ccncc1 (configuration not stated)	–	inactive: -4.03%
CC(C)(C)N(NS(=O)(=O)c1ccc(F)cc1)c1ccccc1	inconclusive: 89.1 µM [inhibitor, single point]	–
CCN(CC)S(=O)(=O)c1ccc(C(=O)NC(C)(C)C)cc1	–	inactive: -15.4%
CCOc1ccc(CN(C)CCc2ccccn2)cc1	active: 17.8 µM	–
COc1ccc2c(c1)CCc1c(C(=O)Nc3ccn(Cc4ccc(C)cc4)n3)noc1-2	inconclusive: 31.6 µM [inhibitor, single point]	–
COc1ccccc1NC(=O)/C=C\c1ccco1	–	inactive: -31.4%
